# Measured values taken from PubChem BioAssay AID1346428 (National Center for Advancing Translational Sciences (NCATS), 2018).
# Hit rate of the full screen: of about 48,000 compounds, about 1,200 (2.5%) were called active. Roughly 2% stayed inconclusive and do not appear here.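 Rule for the calls: active = activation of at least 60% and not above a set upper limit (about 1 call in 100 departs from these limits); inconclusive = activation of 40% to 60%, or above that upper limit; inactive = activation under 40%.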 The list shows a part of the results.
# Molecular target: Probable G-protein coupled receptor 32 (Homo sapiens) (UniProt O75388)
# UniProt O75388, sequence (O75388 whole entry, looked up): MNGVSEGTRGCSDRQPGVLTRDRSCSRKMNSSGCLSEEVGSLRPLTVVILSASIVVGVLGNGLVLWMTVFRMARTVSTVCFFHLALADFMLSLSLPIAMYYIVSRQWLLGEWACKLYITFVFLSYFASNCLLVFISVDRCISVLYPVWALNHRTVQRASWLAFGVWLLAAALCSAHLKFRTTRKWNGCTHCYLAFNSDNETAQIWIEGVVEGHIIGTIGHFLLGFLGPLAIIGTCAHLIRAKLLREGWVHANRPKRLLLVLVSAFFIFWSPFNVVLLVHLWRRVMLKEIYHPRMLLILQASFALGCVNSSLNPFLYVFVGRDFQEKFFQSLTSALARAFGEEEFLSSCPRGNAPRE
# Assay: qHTS for Agonists of Human Resolvin D1 Receptor DRV1; note: 0% is about no effect
# Details: CHO-K1 GPR32 beta-arrestin PathHunter luminescence, 90 min; at 76.9 µM; hits give high values; zero percent set by DMSO-only wells
# How it was run: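 Cells are plated overnight, treated with compounds in DMSO for 90 minutes at 37 °C, and developed with PathHunter detection reagent for 1 hour before luminescence is read; signal reflects beta-arrestin binding to GPR32 in engineered CHO-K1 cells.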
row,SMILES,activation
1,COc1ccc(NC(=O)C2CCCN(S(=O)(=O)c3c(C)[nH]c(=O)[nH]c3=O)C2)cc1OC (centres undefined),inactive: 8.38%
2,CCN1CCN(c2csc3ccc(Br)cc3c2=O)CC1,inactive: -29.6%
3,CCn1c(=O)c2cc(C(=O)NCc3cc(OC)ccc3OC)sc2c2ccccc21,inactive: 2.39%
4,Cc1ccc(NC(=O)C2CCCN(c3ncnc4c3nc3n4CCCCC3)C2)c(Br)c1 (centres undefined),inactive: 14%
5,COC(=O)c1c(NC(=O)c2ccc(OC)cc2OC)sc2c1CCCCC2,inactive: -11.3%
6,COc1ccc(CC(C)NS(=O)(=O)c2ccc3c(c2)CCN3S(C)(=O)=O)cc1OC (centres undefined),inactive: 5.31%
7,COc1ccc(NC(=O)c2oc3ccccc3c2NC(=O)c2cc(=O)c3cc(Cl)ccc3o2)cc1,inactive: -0.0367%
8,COc1ccc(Cl)cc1NCc1nnc2n1CCCCC2,inactive: 5.41%
9,Cc1ccc(NC(=O)Cn2c(=O)c(C(F)(F)F)nc3ccccc32)cc1C,inactive: -5.23%
10,CCOC(=O)c1ccccc1NC(=O)Cn1nnc2sc3c(c2c1=O)CCCC3,inactive: -12.7%
11,Cc1ccc(C(C(=O)NC2CCCCC2)N(C)Cc2ccccc2)cc1 (centres undefined),inactive: -13%
12,CCc1cccc(CC)c1NC(=O)CCS(=O)(=O)c1ccc(Br)s1,inactive: 8.27%
13,Cc1oc2c(c1C(=O)Nc1ccc(F)c(F)c1)C1=NCCN1C=N2,inactive: 2.49%
14,CCOc1ccc(NC(=O)c2oc3ccccc3c2NC(=O)C2CCCCC2)cc1,inactive: -0.449%
15,Cn1cc(-c2cc3n(n2)CCC(=O)N3CCCC(=O)NCc2ccc(F)cc2)c2ccccc21,inactive: -4.93%
16,CCOC(=O)c1ccccc1Nc1nc2ccc(C)cc2n2nnnc12,inactive: 6.07%
17,Cc1cccc(C)c1NC(=O)c1nc(S(C)(=O)=O)ncc1N(Cc1ccc(C(C)(C)C)cc1)Cc1ccco1,inactive: -18.4%
18,CCN1CCN(Cc2c(O)ccc3oc(C)c(C(=O)Nc4ccc(OC)cc4)c23)CC1,inactive: 3.26%
19,CC(C)CNC(=O)N1CCN(S(=O)(=O)c2ccc3c(ccn3C)c2)CC1,inactive: -3.81%
20,Cc1ccc(NC(=O)CSc2nc3nc(C)c(Cc4ccccc4)c(C)n3n2)cc1,inactive: -9.93%
21,N#C/C(=C\c1ccc(O)c(O)c1)C(=O)NCCCc1ccccc1,inactive: -17.1%

row,SMILES,activation
1,Cc1ccc2oc3c(c(=O)c2c1)C(c1ccccc1F)N(c1ccccn1)C3=O (centres undefined),inactive: 0.673%
2,CCCCCCCCCCCCCCCC(=O)O,inactive: -8.37%
3,COc1ccc(-c2cc(C(F)(F)F)n3nc(C(=O)Nc4cc(C(F)(F)F)ccc4Cl)cc3n2)cc1OC,inactive: -2.42%
4,COc1ccc(Cn2ccnc2SCC(=O)Nc2ccc3c(c2)OCO3)cc1,inactive: -5.61%
5,COc1ccc(NC(=O)Cn2cc(S(=O)(=O)N3CCC(C)CC3)c3ccccc3c2=O)cc1Cl,inactive: -21.1%
6,COc1ccc2c(c1)c1c(c(=O)n(-c3ccc(C)cc3)c(=O)n1CC(=O)c1ccc(Cl)cc1)n2C,inactive: 28.1%
7,Cc1ccc(C)c(CNS(=O)(=O)c2ccc3c(c2)C(C)(C)C(=O)N3C)c1,inactive: -9.21%
8,CC1CCN(S(=O)(=O)c2ccc3c(c2)N(CC(=O)NCCN(C)C)C(=O)CO3)CC1,inactive: -3.65%
9,Cc1ccccc1C(=O)Nc1cccc(OCc2cc(=O)n3c4c(sc3n2)CCCC4)c1,inactive: 14.4%
10,CC1CCN=C(N)S1 (centres undefined),inactive: 3.4%
11,COc1ccc2c(CNCCc3ccccc3C)c(C(=O)O)n(Cc3ccccc3C)c2c1,inactive: -3.01%
12,CCOc1ccc(C(=O)OCCN(CC)CC)cc1,inactive: -2.63%
13,CCOc1ccc(NC(=O)c2ccc3[nH]c(C)cc(=O)c3c2)cc1,inactive: -5.22%
14,COc1cccc(CNS(=O)(=O)c2ccc3[nH]c4c(c3c2)CCCCC4)c1,active: 64.5%
15,Cc1ccc(C)c(N2CCN(C(=O)c3ccc(-c4nc(COc5ccccc5)c(C)o4)cc3)CC2)c1,inactive: -7.5%
16,Cc1ccc2c(c1)cc1c(=O)n(CC(=O)N(C)c3ccccc3)nc(C)n12,inactive: 6.48%
17,CC(=O)N1CCc2c(sc3c2c(=O)n(-c2cccc(Cl)c2C)c(=O)n3Cc2ccccc2C)C1,inactive: -16.6%
18,O=C(CCCCn1c(=O)[nH]c2ccsc2c1=O)N1CCN(c2cccc(C(F)(F)F)c2)CC1,active: 74%
19,COc1ccc(CN(Cc2ccco2)C(=O)COc2ccc(Cl)cc2C)cc1,inactive: -24.2%
20,CCOC(=O)c1c(S(=O)(=O)N2CCCC(C(=O)NCc3ccc(F)cc3)C2)c(C)n(CC)c1C (centres undefined),inactive: -2.36%
21,COc1cccc(-c2nnc(SCC(=O)N3CCCCC3)o2)c1,inactive: 0.736%

row,SMILES,activation
1,O=C(OCc1cc(=O)n2nc(-c3cccs3)sc2n1)c1cccc(Cl)c1,inactive: 5.28%
2,COc1ccc(CNC(=O)C2CCCN(S(=O)(=O)N(C)c3ccc(F)cc3)C2)cc1OC (centres undefined),inactive: -7.07%
3,Cc1ccc(C)c(Cn2c(=O)n(CC3CCC(C(=O)N4CCOCC4)CC3)c(=O)c3sccc32)c1 (centres undefined),inactive: -4.01%
4,CCOC(=O)c1cccc(NC(=O)c2ccc3c(c2)nnn3CC)c1,active: 61.4%
5,CCc1cccc(CC)c1NC(=O)CN(CC(=O)O)CC(=O)O,inactive: -24.5%
6,Cc1ccn2c(NC(=O)c3cccc(Cl)c3)c(-c3ccccc3)nc2c1,inactive: -7.52%
7,CCOCCCn1c(=N)c(C(=O)NC(C)c2ccccc2)cc2c(=O)n3cc(C)ccc3nc21 (centres undefined),inactive: -9.46%
8,CCc1ccc(CNc2ncc(-c3cccc(OC)c3)n2C)cc1,inactive: -31.6%
9,CCCC(=O)N1CCc2cc(OC)c(OC)cc2C1COc1ccccc1OC (centres undefined),inactive: 3.55%
10,CCOC(=O)Cc1cc(C(=O)Nc2ccc(Br)cc2)sc1-c1ccc(C)cc1,inactive: -16.4%
11,Cc1cccc(C)c1NC(=O)Cn1c(=O)n(Cc2ccc(C(=O)NCc3ccco3)cc2)c(=O)c2sccc21,inactive: -7.44%
12,Cc1cc(C)cc(OCC(=O)Nc2nonc2-c2ccc(Br)cc2)c1,inactive: 29.1%
13,Cc1nc2sc(C)c(C)n2c(=O)c1S(=O)(=O)N1CCN(c2ccccc2F)CC1,inactive: -5.87%
14,Cc1cccc(N2CCN(C(=O)c3ccc4nc(N5CCC(C)CC5)sc4c3)CC2)c1C,inactive: -0.997%
15,Cc1c(C(=O)N(Cc2ccc(N(C)C)cc2)CC2CCCO2)oc2ccccc12 (centres undefined),inactive: -33.6%
16,Cc1ccc2c(Sc3ccc(Cl)cc3)c(C(=O)NCCC(C)C)[nH]c2c1,inactive: 6.62%
17,CCc1nnc(SCc2nc(-c3ccccc3Cl)oc2C)c2cc3sc(C)cc3n12,inactive: -8.64%
18,O=C(Nc1nc2c(F)cccc2s1)c1ccc(S(=O)(=O)N2CCOCC2)cc1,inactive: 27.3%
19,CCCSc1ncc(Cl)c(C(=O)Nc2ccc(S(=O)(=O)N3CCCC(C)C3)cc2)n1 (centres undefined),inactive: -25.3%
20,Cc1ccc(NC(=O)CN2C(=O)c3cccnc3Sc3ccccc32)cc1C,inactive: -13.6%
21,COc1ccc(CN(C(=O)c2ccccc2F)C2CCS(=O)(=O)C2)cc1 (centres undefined),inactive: -9.98%

row,SMILES,activation
1,COc1ccc2[nH]cc(CCNC(=O)Nc3ccccc3)c2c1,active: 66.8%
2,Cc1ccc(NC(=O)N2CC3CCCN3c3ccccc32)cc1C (centres undefined),inactive: -3.32%
3,CN(C)c1ccc(CN(Cc2ccco2)C(=O)COc2ccc(F)cc2)cc1,inactive: -26.7%
4,Cc1cccc(C(=O)NCC(c2cccs2)S(=O)(=O)c2cccs2)c1 (centres undefined),inactive: 36.2%
5,COc1ccccc1CCNC(=O)C(=O)NCC(c1ccco1)S(=O)(=O)c1cccs1 (centres undefined),inactive: -11.5%
6,COc1ccc(C(=O)Nc2ccc(NC(=O)c3cccs3)cc2)cc1OC,inactive: -30.8%
7,Cc1ccc(S(=O)(=O)NC2(C(F)(F)F)NC(=O)N(c3ccc(F)cc3)C2=O)cc1 (centres undefined),inactive: -1.64%
8,CCOCCc1nn2c(=O)cc(COC(=O)c3ccccc3NC(=O)c3ccccc3F)nc2s1,inactive: -9.77%
9,CCOC(=O)c1ccc(CN(Cc2ccc(C)cc2)S(=O)(=O)c2ccc(F)c(C(=O)Nc3ccc(C)c(F)c3)c2)cc1,inactive: -21.6%
10,Cc1ccc(-c2nc3n(n2)C(c2ccccc2Cl)C=C(c2ccc(Cl)cc2)N3)cc1 (centres undefined),inactive: -4.98%
11,CC1CCN(S(=O)(=O)c2ccc3c(c2)CCN3C(=O)Nc2cccc(Br)c2)CC1,inactive: -22%
12,O=C(NCC(c1ccc2c(c1)OCO2)N1CCN(c2ccccc2)CC1)C(=O)Nc1ccc(F)cc1 (centres undefined),inactive: -9.46%
13,CCOc1ccc(C(=O)c2cn(CC(=O)Nc3ccc(OC)cc3)c3cc4c(cc3c2=O)OCO4)cc1,inactive: 1.18%
14,Cc1oc(-c2ccc(C(=O)NCCC(C)C)cc2)nc1CS(=O)(=O)c1ccccc1,inactive: 44.6%
15,CC(C)CCn1c(=O)c2cccnc2n(CC(=O)Nc2ccccc2)c1=O,inactive: -6.37%
16,CCS(=O)(=O)N1CC(=O)N(c2cccc(Cl)c2)C(C)(C(=O)NC2CCCCCC2)C1 (centres undefined),inactive: -8.37%
17,CCOC(=O)c1c(C)[nH]c(C)c1S(=O)(=O)N1CCCC(C(=O)Nc2ncccc2C)C1 (centres undefined),inactive: 1.5%
18,N#Cc1c[nH]n2c(NC3CCCC3)c(-c3cccc(Br)c3)nc12,inactive: -9.5%
19,COC(=O)c1sccc1S(=O)(=O)N(CC(=O)NCc1ccc(C)cc1)c1ccccc1,inactive: 19.8%
20,COc1ccc(N2CCN(C(=O)c3ccc4c(c3)CCN4S(=O)(=O)c3ccccc3)CC2)cc1,inactive: -10.4%
21,COc1cc(NC(=O)CSc2cc(=O)n(C)c3ccccc23)cc(OC)c1OC,inactive: 28.7%
